# Results published in patent publication US9782491B2, “Peptide conjugates for treating pain” (priority 2012, dated 2017).
# Target: CRMP2 (Homo sapiens, UniProt Q16555)
# Experiment: Isothermal titration calorimetry binding to CRMP2
# Excerpt: EXAMPLE. […] L1 and [2014-2028]
sequence,measurement,value
NSSFPSIHCSSWSEE [Ct-dis],difference in binding affinities between L1 and Ct-dis binding to CRMP2,5 to 7 fold

# Ends that are not written are not given here.
